Some of the results follow. Cut-off read from the data, not from the text of the source: active = 3.2 or more and inactive = the rest. The signal is at background level for most entries.
target: SHP2 C-SH2 domain E139D; assay: enrichment score (SH2-bound / input frequency) (ratio); bacterial display of known human phosphotyrosine sites (pTyr-Var adds point mutants) read by sequencing; higher = stronger binding; tyrosines were phosphorylated by kinases first; conditions: peptide library: pTyr-Var
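Note: displayed peptides selected on beads carrying the immobilized SH2 domain, with library peptides lacking any tyrosine serving as negative controls.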

Enrichment score, inactive:
ILQSMYGCDVG [HLA-B_Y123_T118I] 0.976
FIAVGYVDDTQ [HLA-A_Y51] 1.6
ESLRRYLENGK [HLA-B_Y195_W191S] 0.709
GKGGSYSQAAC [HLA-B_Y344] 0.802
QEEPEYWDQET [HLA-A_Y83_G80E] 0.548
FIAVGYVDDSQ [HLA-A_Y51_T55S] 1.52
QEGPEYWDGET [HLA-A_Y83_Q86G] 0.562
TLQSMYGCDVG [HLA-B_Y123] 1
GKGGSYSQAAS [HLA-B_Y344_C349S] 0.615
RGYRQYAYDGK [HLA-A_Y140_D140Y] 0.272
RGFRQDAFDGK [HLA-A_Y140_YF] 0.313
DWLRRYLENGK [HLA-A_Y195_E190D] 0.55
QEGPEYWDQET [HLA-A_Y83] 0.463
YDGKDYIALNE [HLA-A_Y147] 0.846
EWLRRYLENGK [HLA-A_Y195] 0.585
FDGKDYIALKE [HLA-A_Y147_N151K_YF] 0.594
FISVGYVDDTL [HLA-B_Y51_Q56L] 0.922
FITVGYVDDTQ [HLA-B_Y51_S48T] 1.19
QEGPEYWDQQT [HLA-A_Y83_E87Q] 0.71

target: SHP2 C-SH2 domain wild-type; assay: as above; conditions: peptide library: pTyr-Var

Enrichment score, inactive:
ILQSMYGCDVG [HLA-B_Y123_T118I] 0.884
FIAVGYVDDTQ [HLA-A_Y51] 1.34
ESLRRYLENGK [HLA-B_Y195_W191S] 0.588
GKGGSYSQAAC [HLA-B_Y344] 0.759
QEEPEYWDQET [HLA-A_Y83_G80E] 0.819
FIAVGYVDDSQ [HLA-A_Y51_T55S] 1.17
QEGPEYWDGET [HLA-A_Y83_Q86G] 0.594
TLQSMYGCDVG [HLA-B_Y123] 0.79
GKGGSYSQAAS [HLA-B_Y344_C349S] 0.536
RGYRQYAYDGK [HLA-A_Y140_D140Y] 0.252
RGFRQDAFDGK [HLA-A_Y140_YF] 0.313
DWLRRYLENGK [HLA-A_Y195_E190D] 0.429
QEGPEYWDQET [HLA-A_Y83] 0.59
YDGKDYIALNE [HLA-A_Y147] 0.711
EWLRRYLENGK [HLA-A_Y195] 0.617
FDGKDYIALKE [HLA-A_Y147_N151K_YF] 0.64
FISVGYVDDTL [HLA-B_Y51_Q56L] 1.24
FITVGYVDDTQ [HLA-B_Y51_S48T] 1.14
QEGPEYWDQQT [HLA-A_Y83_E87Q] 0.807

target: SHP2 N-SH2 domain L43F; assay: as above; conditions: peptide library: pTyr-Var

Enrichment score, inactive:
ILQSMYGCDVG [HLA-B_Y123_T118I] 0.823
FIAVGYVDDTQ [HLA-A_Y51] 1.41
ESLRRYLENGK [HLA-B_Y195_W191S] 0.549
GKGGSYSQAAC [HLA-B_Y344] 0.854
QEEPEYWDQET [HLA-A_Y83_G80E] 0.67
FIAVGYVDDSQ [HLA-A_Y51_T55S] 1.46
QEGPEYWDGET [HLA-A_Y83_Q86G] 0.589
TLQSMYGCDVG [HLA-B_Y123] 0.729
GKGGSYSQAAS [HLA-B_Y344_C349S] 0.607
RGYRQYAYDGK [HLA-A_Y140_D140Y] 0.328
RGFRQDAFDGK [HLA-A_Y140_YF] 0.376
DWLRRYLENGK [HLA-A_Y195_E190D] 0.541
QEGPEYWDQET [HLA-A_Y83] 0.521
YDGKDYIALNE [HLA-A_Y147] 0.932
EWLRRYLENGK [HLA-A_Y195] 0.516
FDGKDYIALKE [HLA-A_Y147_N151K_YF] 0.688
FISVGYVDDTL [HLA-B_Y51_Q56L] 1.1
FITVGYVDDTQ [HLA-B_Y51_S48T] 1.08
QEGPEYWDQQT [HLA-A_Y83_E87Q] 0.649

target: SHP2 N-SH2 domain T42A; assay: as above; conditions: peptide library: pTyr-Var

Enrichment score, inactive:
ILQSMYGCDVG [HLA-B_Y123_T118I] 0.79
FIAVGYVDDTQ [HLA-A_Y51] 1.43
ESLRRYLENGK [HLA-B_Y195_W191S] 0.497
GKGGSYSQAAC [HLA-B_Y344] 0.71
QEEPEYWDQET [HLA-A_Y83_G80E] 0.72
FIAVGYVDDSQ [HLA-A_Y51_T55S] 1.41
QEGPEYWDGET [HLA-A_Y83_Q86G] 0.645
TLQSMYGCDVG [HLA-B_Y123] 0.71
GKGGSYSQAAS [HLA-B_Y344_C349S] 0.527
RGYRQYAYDGK [HLA-A_Y140_D140Y] 0.288
RGFRQDAFDGK [HLA-A_Y140_YF] 0.488
DWLRRYLENGK [HLA-A_Y195_E190D] 0.323
QEGPEYWDQET [HLA-A_Y83] 0.443
YDGKDYIALNE [HLA-A_Y147] 0.852
EWLRRYLENGK [HLA-A_Y195] 0.506
FDGKDYIALKE [HLA-A_Y147_N151K_YF] 0.57
FISVGYVDDTL [HLA-B_Y51_Q56L] 1.1
FITVGYVDDTQ [HLA-B_Y51_S48T] 1.12
QEGPEYWDQQT [HLA-A_Y83_E87Q] 0.639

target: SHP2 N-SH2 domain T52S; assay: as above; conditions: peptide library: pTyr-Var

Enrichment score, inactive:
ILQSMYGCDVG [HLA-B_Y123_T118I] 1
FIAVGYVDDTQ [HLA-A_Y51] 1.56
ESLRRYLENGK [HLA-B_Y195_W191S] 0.733
GKGGSYSQAAC [HLA-B_Y344] 0.76
QEEPEYWDQET [HLA-A_Y83_G80E] 0.605
FIAVGYVDDSQ [HLA-A_Y51_T55S] 1.59
QEGPEYWDGET [HLA-A_Y83_Q86G] 0.415
TLQSMYGCDVG [HLA-B_Y123] 0.826
GKGGSYSQAAS [HLA-B_Y344_C349S] 0.41
RGYRQYAYDGK [HLA-A_Y140_D140Y] 0.258
RGFRQDAFDGK [HLA-A_Y140_YF] 0.393
DWLRRYLENGK [HLA-A_Y195_E190D] 0.441
QEGPEYWDQET [HLA-A_Y83] 0.493
YDGKDYIALNE [HLA-A_Y147] 0.807
EWLRRYLENGK [HLA-A_Y195] 0.605
FDGKDYIALKE [HLA-A_Y147_N151K_YF] 0.82
FISVGYVDDTL [HLA-B_Y51_Q56L] 1.26
FITVGYVDDTQ [HLA-B_Y51_S48T] 1.45
QEGPEYWDQQT [HLA-A_Y83_E87Q] 0.608

target: SHP2 N-SH2 domain wild-type; assay: as above; conditions: peptide library: pTyr-Var

Enrichment score, inactive:
ILQSMYGCDVG [HLA-B_Y123_T118I] 1.13
FIAVGYVDDTQ [HLA-A_Y51] 1.23
ESLRRYLENGK [HLA-B_Y195_W191S] 0.882
GKGGSYSQAAC [HLA-B_Y344] 0.921
QEEPEYWDQET [HLA-A_Y83_G80E] 0.886
FIAVGYVDDSQ [HLA-A_Y51_T55S] 1.3
QEGPEYWDGET [HLA-A_Y83_Q86G] 0.783
TLQSMYGCDVG [HLA-B_Y123] 0.861
GKGGSYSQAAS [HLA-B_Y344_C349S] 0.669
RGYRQYAYDGK [HLA-A_Y140_D140Y] 0.4
RGFRQDAFDGK [HLA-A_Y140_YF] 0.377
DWLRRYLENGK [HLA-A_Y195_E190D] 0.509
QEGPEYWDQET [HLA-A_Y83] 0.668
YDGKDYIALNE [HLA-A_Y147] 0.713
EWLRRYLENGK [HLA-A_Y195] 0.733
FDGKDYIALKE [HLA-A_Y147_N151K_YF] 0.531
FISVGYVDDTL [HLA-B_Y51_Q56L] 1.25
FITVGYVDDTQ [HLA-B_Y51_S48T] 1.2
QEGPEYWDQQT [HLA-A_Y83_E87Q] 0.761

Reference: the supplement of paper PMC10369915
